# Experimental data reported in article PMC4336329 (PLoS ONE, 2015).
# In all, about 310,000 compounds went through this assay and about 14,000 (4.5%) showed an effect of 50% or more. The effect is printed as a negative number. The list shows a part of the results.
# Molecular target: human ether-à-go-go-related gene (hERG) potassium channel (human, UniProt Q12809)
# Experiment: primary screen, population patch clamp on CHO cells stably expressing hERG
# 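Note: peak tail current of the secondary pulse compared with the same well before compound.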
# human ether-à-go-go-related gene (hERG) potassium channel, sequence (Q12809 whole entry, looked up): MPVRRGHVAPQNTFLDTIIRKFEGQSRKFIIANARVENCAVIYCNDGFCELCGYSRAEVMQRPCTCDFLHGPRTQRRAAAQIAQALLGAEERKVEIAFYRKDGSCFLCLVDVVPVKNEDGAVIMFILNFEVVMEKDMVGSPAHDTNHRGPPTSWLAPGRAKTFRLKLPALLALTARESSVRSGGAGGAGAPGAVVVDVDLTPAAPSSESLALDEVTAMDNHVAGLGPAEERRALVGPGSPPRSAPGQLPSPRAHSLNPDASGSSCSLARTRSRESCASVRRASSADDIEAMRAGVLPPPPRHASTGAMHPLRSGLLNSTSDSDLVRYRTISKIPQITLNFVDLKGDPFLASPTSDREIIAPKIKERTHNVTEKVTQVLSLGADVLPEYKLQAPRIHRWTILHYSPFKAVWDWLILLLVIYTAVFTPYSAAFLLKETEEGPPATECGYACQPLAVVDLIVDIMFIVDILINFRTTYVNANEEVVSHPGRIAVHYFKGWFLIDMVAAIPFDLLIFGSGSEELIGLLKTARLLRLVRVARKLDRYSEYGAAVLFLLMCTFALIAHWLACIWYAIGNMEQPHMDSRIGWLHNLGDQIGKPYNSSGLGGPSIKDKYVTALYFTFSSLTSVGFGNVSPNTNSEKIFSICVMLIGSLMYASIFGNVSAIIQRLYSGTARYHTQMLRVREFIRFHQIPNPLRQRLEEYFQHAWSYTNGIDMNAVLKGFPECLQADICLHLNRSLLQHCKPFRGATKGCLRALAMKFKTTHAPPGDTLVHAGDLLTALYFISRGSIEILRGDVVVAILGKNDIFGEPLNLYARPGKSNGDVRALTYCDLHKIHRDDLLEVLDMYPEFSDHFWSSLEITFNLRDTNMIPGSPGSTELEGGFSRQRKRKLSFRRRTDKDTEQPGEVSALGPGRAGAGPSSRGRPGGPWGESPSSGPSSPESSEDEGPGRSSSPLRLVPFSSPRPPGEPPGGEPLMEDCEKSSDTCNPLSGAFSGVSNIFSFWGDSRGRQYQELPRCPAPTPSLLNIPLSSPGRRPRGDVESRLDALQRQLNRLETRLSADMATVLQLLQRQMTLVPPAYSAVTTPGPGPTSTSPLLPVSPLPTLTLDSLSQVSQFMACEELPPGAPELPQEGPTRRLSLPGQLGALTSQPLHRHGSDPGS
row,Compound,"hERG current change (%, negative = inhibition) at 10uM [%]"
1,CCN(CC)c1ccc(NC(=O)c2ccc(Cl)nc2)cc1,14.9
2,Cc1ccc(OCC(O)Cn2nc(C)cc2C)cc1 (centres unmarked),8.88
3,COc1ccc(C(=O)C(/C=N/O)=N/Nc2ccc(F)cc2)cc1,23.9
4,Cc1cc(=O)oc2cc(OCC(=O)NCc3cccnc3)ccc12,6.99
5,O=c1[nH]cnc(O)c1N=Nc1ccccc1,12.4
6,Cc1noc(C)c1CSc1nnc2cc(C)c3ccccc3n12,0.629
7,N#C/C(=C/c1cn[nH]c1-c1ccc(Br)cc1)C(=O)O,14.3
8,CC(C)CC(=O)Nc1c2c(nn1-c1cccc(Cl)c1)CS(=O)C2 (centres unmarked),11.6
9,O=C(CCc1ccccc1)NCc1ccncc1,18.4
10,CCCCCCNC(=O)N[C@@H](C(=O)NCCC[C@H]1CN2C(=NC[C@@H]2Cc2ccccc2)N1CCc1cccc(OC)c1)C(C)C,-18.7
11,Cc1cc(C)cc(CSc2ccc(S(=O)(=O)N3CCCC3)cn2)c1,-5.17
12,COCc1cc(C)nc(SCC(=O)Nc2nc(C)cs2)c1C#N,-5.8
13,CCOC(=O)/C(=C\c1c[nH]c2ccccc12)NC(C)=O,0.157
14,COC(=O)c1cc2c(cc1[N+](=O)[O-])OCO2,9.54
15,COc1cccc(NC(=O)Cc2nnc(SCC(=O)NC3CCCCC3)n2C)c1,24.3
16,CSc1ncccc1C(=O)N(C)CC(=O)Nc1ccc(Cl)cc1,-9.5
17,Cc1ccc2c(C(=O)CN3CCN(c4ccccc4)CC3)c(C)[nH]c2c1,10.4
18,CC(C)CNC(=O)c1cc(-c2ccc(Br)cc2)on1,44.7
19,O=c1[nH]c(O)c(N=Nc2ccc(S(=O)(=O)N3CCOCC3)cc2)c(=O)[nH]1,-4.59
20,CCN1CCN(CC2COc3ccccc3O2)CC1.Cl (centres unmarked),-4.7
21,N/C(=N\OC(=O)CC1CCCCC1)c1cccc(Br)c1,27.9
22,CCCC1=C(C(=O)OCC)C2(C(=O)Nc3ccc(C)cc32)C(C#N)=C(N)O1 (centres unmarked),-6.06
23,NCCc1c[nH]c2ccc(OCc3ccccc3)cc12,5.07

row,Compound,"hERG current change (%, negative = inhibition) at 10uM [%]"
1,CC(=O)OC[C@H]1COc2ccc3ccccc3c2[C@H]1N(C)C(C)=O,-26.3
2,O=C(NN=C1CCCC1)c1sc2ccccc2c1Cl,-46.1
3,CCc1ccccc1NC(=O)Nc1cnccn1,8.92
4,Cc1ccccc1OCC(=O)N(Cc1cccc(F)c1)C1CCS(=O)(=O)C1 (centres unmarked),-4.14
5,COc1cccc(-c2cc(-c3cccnc3)c(C#N)c(N)n2)c1,8.32
6,CCCC(=O)c1cc2c(cc1NC(=O)c1cccs1)OCCO2,20.6
7,COC(=O)C(CC(=O)c1ccccc1)CC(=O)c1ccccc1,4.39
8,Cc1nn(-c2ccccc2)c(Cl)c1/C=N/NC(N)=O,10.8
9,O=C(N/N=C/c1cccnc1)c1sc2ccccc2c1Cl,-2.83
10,COc1cccc(-c2ccc(NC(=O)C3CCCN(CCCn4cccn4)C3)cc2)c1 (centres unmarked),-64.1
11,Cc1ccc2nc(Cl)c(C3CC(c4ccco4)=NN3C(=O)CCCC(=O)O)cc2c1 (centres unmarked),-5.35
12,COc1cc(Cl)cc(/C=C/c2ccc3ccccc3n2)c1OC(C)=O,15.4
13,CCC(c1nnc(SCC(=O)Nc2cc(S(C)(=O)=O)ccc2Cl)n1Cc1ccccc1)N(C)C (centres unmarked),-12.3
14,C=CCON1C(=O)c2ccccc2C1=O,19.8
15,COc1ccc(CCNC(=O)C(NS(=O)(=O)c2cccc3nsnc23)C(C)C)cc1OC (centres unmarked),-0.214
16,Cc1[nH]c(=O)[nH]c(=O)c1NC(=O)c1cccs1,3.34
17,CCCN1CCC(=O)N([C@H](COc2ccccc2)Cc2ccccc2)CC1,-68.1
18,COc1ccc(C(C)=O)cc1CS(=O)(=O)CC(=O)O,20.4
19,Cc1c(C(=O)c2no[n+]([O-])c2C(=O)c2cnn(C)c2C)cnn1C,1.16
20,Cc1cc(C)c2nc(N3C(=O)C(O)=C(C(=O)c4ccco4)C3c3ccco3)sc2c1.O=C(O)C(=O)O (centres unmarked),17.2
21,COc1ccc(CN2CC(=O)N(c3cccc(Cl)c3)C2=S)cc1OC,16.4
22,CCN(CC)S(=O)(=O)c1ccc2[nH]c(=O)cc(C(=O)Nc3ccccc3N3CCCC3)c2c1,-6.87
23,O=C(NCCCn1ccnc1)C(=O)c1c[nH]c2ccccc12,9.1

row,Compound,"hERG current change (%, negative = inhibition) at 10uM [%]"
1,Cc1noc(C)c1S(=O)(=O)N1CCC(C(=O)NC2CCN(Cc3ccccc3)CC2)CC1,-25
2,CC(CCN1CCN=C1N(C)C)c1ccccc1 (centres unmarked),-15.3
3,O=C(c1ccc(F)cc1)C1CCN(C(=O)NC2CCCCC2)CC1,-6.5
4,Cn1c(SCc2nnc(-c3ccccc3Br)o2)nc2sc3c(c2c1=O)CCC3,12.7
5,O=C(O)C(O)Cc1c[nH]c2ccccc12 (centres unmarked),15.1
6,CS(=O)(=O)N(CC(=O)NC1CC2CCC1C2)c1ccc(Oc2ccccc2)cc1 (centres unmarked),2.38
7,Cc1c(Cc2ccccc2)c(=O)oc2cc(OC(C)C(=O)NCC3CCC(C(=O)O)CC3)c(Cl)cc12 (centres unmarked),5.18
8,COc1ccc(S(=O)(=O)N2CCC(C(=O)N3CCOCC3)CC2)cc1,7.89
9,CC1c2nc3ccccc3n2C(CC(=O)NC2CC2)C(=O)N1Cc1ccccc1 (centres unmarked),5.41
10,COc1ccc(C=O)cc1OS(=O)(=O)c1ccc(NC(C)=O)cc1,0.657
11,CC(C)(Oc1ccc(Cl)cc1)C(=O)OCC(=O)N1CCCC1,14.4
12,COc1cccc(NC(=O)C(Sc2nnc(-c3ccncc3)n2-c2ccc(Cl)cc2)c2ccccc2)c1 (centres unmarked),-10.3
13,CN1CCN(CCCCOc2cccc3ccccc23)CC1.Cl,-27.4
14,O=C(Oc1ccc(Br)cc1C(=S)N1CCOCC1)c1ccc([N+](=O)[O-])cc1[N+](=O)[O-],16.4
15,O=C(COc1ccc(S(=O)(=O)NCc2ccccc2)cc1Cl)NCC1CCCO1 (centres unmarked),-40.4
16,CC(C)=N/N=C1\NC(=O)C(C)S1 (centres unmarked),12.7
17,O=C(COC(=O)CCc1ccc(S(=O)(=O)N2CCCCC2)cc1)Nc1cccc2ccccc12,-17.8
18,O=C(CS(=O)(=O)Cc1ccccc1)Nc1ccc(Cl)cn1,-11.9
19,COC(CCN(C)C)(c1ccccc1)c1ccccc1,6.01
20,CCOC(=O)N1CCN(C(=O)CSc2nc(-c3cccc(C)c3)ns2)CC1,-38.8
21,COc1ccccc1-c1c(C)oc2c(CN3CCCCC3C)c(O)ccc2c1=O (centres unmarked),-1.14
22,Cn1c(SCC(=O)C(C)(C)C)nnc1-c1cccnc1,-1.57
23,CCC(=O)Nc1ccc(NC(=O)CSc2nc3cc4c(cc3cc2C)CCC4)cc1,3.1

row,Compound,"hERG current change (%, negative = inhibition) at 10uM [%]"
1,CC(C)C[C@H]1CN=C(Nc2ccccc2)N1CC1CCC1,-30.2
2,CCOC(=O)c1sc(NC(=O)CSc2nc3c(c(=O)n2-c2ccc(C)cc2)SCC3)c(C(=O)OCC)c1C,3.69
3,O=c1c(C=Nc2cccc(C(F)(F)F)c2)c[nH]n1-c1cccc(Cl)n1,5.39
4,Cn1c(=O)[nH]c(=O)c2c1nc(N1CCCCCC1)n2CCSc1nc2ccccc2o1,3.31
5,O=c1ccc2ccc(Oc3ccc(Cl)cc3[N+](=O)[O-])cc2o1,-5.35
6,Cc1nnc(N(Cc2ccco2)C(=O)c2ccno2)s1,1.77
7,CCN(CC)S(=O)(=O)c1ccc(C(=O)NC(=S)N(CCC#N)Cc2cccnc2)cc1,12.6
8,CCn1c(SCC(=O)Nc2ccc3c(c2)OCO3)nnc1-c1cnccn1,-40.5
9,NC(=O)C1CCN(C(=O)c2cnn(-c3ccccc3)c2NC(=O)c2ccco2)CC1,6.53
10,O=C(COC(=O)Cc1cccc(C(F)(F)F)c1)Nc1ccccc1,11.2
11,CCn1ncc(CN2CCN(Cc3ccc(OC)c(C)c3C)C(CCO)C2)c1C (centres unmarked),-19.9
12,O=C(Cn1cnc([N+](=O)[O-])c1)Nc1ccccc1C(F)(F)F,-14.3
13,O=C(CCN1C(=O)COc2ccccc21)NCCN1CCOCC1,13.5
14,COC(=O)Cn1c(=NC(=O)c2cc(OC)cc(OC)c2)sc2cc(OC)ccc21,21.9
15,O=C(COC(=O)/C=C/c1cccc(C(F)(F)F)c1)NC(c1ccccc1)c1ccccc1,-8.94
16,CN(C(=O)COC(=O)c1cc(-c2ccccc2Cl)nc2ccccc12)C1CCS(=O)(=O)C1 (centres unmarked),-30.9
17,O=C(CN1CCN(c2ccccc2)CC1)N1N=CCC1c1ccccc1 (centres unmarked),5.51
18,COC(=O)CCC/C=C1/SCC(NC(=O)c2ccccc2)C1=O (centres unmarked),-5.45
19,CC(=O)c1ccc(OCC(=O)OCc2cc(-c3ccco3)on2)cc1,6.87
20,COc1cccc(C(C(=O)NC2CCCC2)N(C(=O)c2ccco2)c2ccc(NC(C)=O)cc2)c1OC (centres unmarked),-64
